# In publication PMC4336329 (PLoS ONE, 2015):
# Hit rate of the full screen: of about 310,000 compounds, about 2,200 (0.71%) showed an effect of 50% or more. The effect is printed as a negative number. Some of the results follow.
# Biological target: human ether-à-go-go-related gene (hERG) potassium channel (human, UniProt Q12809)
# Test: primary screen, population patch clamp on CHO cells stably expressing hERG
# human ether-à-go-go-related gene (hERG) potassium channel, sequence (Q12809 whole entry, looked up): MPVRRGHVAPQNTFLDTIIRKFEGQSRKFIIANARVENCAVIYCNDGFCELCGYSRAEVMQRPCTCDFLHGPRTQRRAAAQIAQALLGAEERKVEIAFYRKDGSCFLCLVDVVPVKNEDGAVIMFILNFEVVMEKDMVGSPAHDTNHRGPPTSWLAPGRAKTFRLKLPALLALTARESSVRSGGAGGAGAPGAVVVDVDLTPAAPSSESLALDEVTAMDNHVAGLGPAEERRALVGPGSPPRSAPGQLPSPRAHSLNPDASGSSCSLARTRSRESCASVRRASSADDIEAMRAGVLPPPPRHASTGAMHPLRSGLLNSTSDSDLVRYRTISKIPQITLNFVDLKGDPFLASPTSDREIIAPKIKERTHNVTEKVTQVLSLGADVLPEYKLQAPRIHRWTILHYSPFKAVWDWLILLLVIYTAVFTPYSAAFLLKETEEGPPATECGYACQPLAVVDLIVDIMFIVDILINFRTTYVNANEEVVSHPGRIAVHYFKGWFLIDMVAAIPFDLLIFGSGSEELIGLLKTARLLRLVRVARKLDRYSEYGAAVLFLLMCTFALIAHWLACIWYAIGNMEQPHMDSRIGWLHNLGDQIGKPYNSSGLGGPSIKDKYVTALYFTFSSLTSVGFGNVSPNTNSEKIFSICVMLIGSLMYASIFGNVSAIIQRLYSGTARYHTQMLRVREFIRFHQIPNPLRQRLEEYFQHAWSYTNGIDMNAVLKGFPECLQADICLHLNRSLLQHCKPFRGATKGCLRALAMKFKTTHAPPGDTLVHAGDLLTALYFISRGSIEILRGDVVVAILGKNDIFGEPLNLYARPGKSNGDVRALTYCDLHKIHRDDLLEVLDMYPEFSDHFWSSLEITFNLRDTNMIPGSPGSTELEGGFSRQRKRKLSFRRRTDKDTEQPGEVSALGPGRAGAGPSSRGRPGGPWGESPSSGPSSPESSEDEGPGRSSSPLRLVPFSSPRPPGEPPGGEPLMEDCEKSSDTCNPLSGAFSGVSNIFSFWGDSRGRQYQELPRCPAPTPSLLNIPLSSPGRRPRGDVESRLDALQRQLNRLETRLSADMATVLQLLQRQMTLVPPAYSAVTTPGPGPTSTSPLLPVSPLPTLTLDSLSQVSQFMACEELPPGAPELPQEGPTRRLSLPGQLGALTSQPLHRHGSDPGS
row,Structure (SMILES),"hERG current change (%, negative = inhibition) at 1uM"
1,CC(CCc1ccco1)NC(=O)c1cc2c(-c3ccccc3F)nn(C)c2s1 (stereo not shown),6.37%
2,C=CCNC(=S)NNC(=O)c1ccc(Br)cc1,11.2%
3,COc1ccc(CN(C(=O)c2ccco2)C2CC(C)N(C)CC2C)cc1 (stereo not shown),-14.9%
4,O=C(CN1C(=O)NC2(CCCCCCC2)C1=O)NCc1ccccc1Cl,12.6%
5,Cc1ccc(NC(=O)CSc2ccc3nnc(-c4ccccn4)n3n2)cc1,5.84%
6,COc1ccc(C(=O)NC2=NCCS2)c(OC)c1,9.73%
7,CC/C(=C/c1sc2ccccc2[n+]1CC)SC.COS(=O)(=O)[O-],8.13%
8,O=C(NCc1n[nH]c(=S)n1-c1cccc(C(F)(F)F)c1)c1ccc(S(=O)(=O)N2CCCC2)cc1,15.2%
9,Cc1cccc(CCNC(=O)C2CCN(S(=O)(=O)c3ccccc3)CC2)c1,-2.02%
10,CCn1c(COc2ccc(OC)cc2)nnc1SCc1nc2ccccc2c(=O)[nH]1,14.5%
11,Cn1cc(NC(=O)CCl)cn1,27.7%
12,O=C(NC(c1ccccc1)c1ccccc1)c1cccc(S(=O)(=O)NCc2ccccc2)c1,-0.118%
13,Cc1cccc2sc(NC(=O)CSc3cn[nH]n3)nc12,14.7%
14,O=C(NC(=S)Nc1ccc(-c2ccc(CO)o2)cc1)c1cccs1,10.6%
15,O=C(Oc1ccc(/C=N/NC(=O)c2ccccn2)cc1)c1cccc(Br)c1,8.17%
16,Cc1ccccc1OCC(O)Cn1c(Br)nc2c1c(=O)[nH]c(=O)n2C (stereo not shown),5.88%
17,Cc1ccccc1C(=O)c1cccn1CC(=O)NCc1ccc(F)cc1,9.03%
18,CCCn1c(-c2ccc(C(=O)OC)cc2)nc2c1c(=O)[nH]c(=O)n2Cc1ccccc1,7.52%
19,CC(=O)c1ccc(NC(=O)C2=CC(c3ccc4c(c3)OCO4)=NS(=O)(=O)N2C)cc1,9.25%
20,Cc1cc(O)c(C2(O)C(=O)Nc3cc(Br)ccc32)cc1C (stereo not shown),21.3%
21,CCOC(=O)c1sc(SC)c2c1CCCC2=O,11.2%
22,CC(C)(C)c1ccc(-c2nc(C#N)c(NCCCn3ccnc3)o2)cc1,5.95%
23,CCN1CCN(C(=O)CN(c2ccc(F)c(Cl)c2)S(C)(=O)=O)CC1,17.3%
24,CCOc1ccc(C(CC(=O)O)NC(=O)Cc2ccc(Cl)cc2)cc1 (stereo not shown),13%
25,O=C(Oc1cccnc1)c1ccc([N+](=O)[O-])cc1,7.57%
